Where a name gives a salt, the structure may show the parent alone.

The first test deals with IL-17 production by CD4 T cells. The test is described as follows: Human Th17 Assay (IL-17 production under Th17 differentiation conditions). The following applies: Homo sapiens, CD4+ T, 72 h, read-out: Human Th17 Assay, IC50.
What is called IC50 is the concentration that inhibits the measured activity by half. On to `COc1nc2ccc(C(O)(c3cnc(C)n3C)c3cnc(C)n3C)cc2c(Cl)c1Cc1ccc(-n2cccn2)cc1` [Example 13, (3-(4-(1H-Pyrazol-1-yl)benzyl)4-chloro-2-methoxyquinolin-6-yl)bis(1,2-dimethyl-1H-imidazol-5-yl)methanol], for which the concentration for half-maximal inhibition (IC50) turned out to be 100 nM.

Staying with this test, now noted: Homo sapiens, CD4+ T, 72 h, read-out: Human Th17 Assay, IC50, IL-17 production, CD4 T cells, 3 days.
As for `COc1nc2ccc(C(O)(c3ccc(C#N)cc3)c3cncn3C)cc2c(Cl)c1Cc1ccc(C(F)(F)F)nc1` (single isomer, unassigned) [Example 38c, 4-((4-Chloro-2-methoxy-3-((6-(trifluoromethyl)pyridin-3-yl)methyl)quinolin-6-yl)(hydroxy)(1-methyl-1H-imidazol-5-yl)methyl)benzonitrile], the half-maximal inhibitory concentration (IC50) worked out at 21 nM.

With `COc1nc2ccc(C(O)(c3ccccn3)c3cncn3C)cc2c(Cl)c1Cc1ccc(S(C)(=O)=O)cc1` (single isomer, unassigned) [Example 58c, (4-Chloro-2-methoxy-3-(4-(methylsulfonyl)benzyl)quinolin-6-yl)(1-methyl-1H-imidazol-5-yl)(pyridin-2-yl)methanol], the IC50 worked out at 650 nM.

In the case of `CC(=O)N1CCC(C(O)(c2cc(C)c3nc(C#N)c(Cc4ccc(-n5cccn5)cc4)c(C#N)c3c2)c2cncn2C)CC1` (single isomer, unassigned) [Example 81b, 3-(4-(1H-Pyrazol-1-yl)benzyl)-6-((1-acetylpiperidin-4-yl)(hydroxy)(1-methyl-1H-imidazol-5-yl)methyl)-8-methylquinoline-2,4-dicarbonitrile], the IC50 was found to be 2600 nM.

`Cc1cc(C(O)(c2ccnc(C(F)(F)F)c2)c2cncn2C)cc2c(C#N)c(Cc3ccc(-n4cccn4)cc3)c(C#N)nc12` (single isomer, unassigned) [Example 83b, 3-(4-(1H-Pyrazol-1-yl)benzyl)-6-(hydroxy(1-methyl-1H-imidazol-5-yl)(2-(trifluoromethyl)pyridin-4-yl)methyl)-8-methylquinoline-2,4-dicarbonitrile]: the IC50 was found to be 3 nM.

Take `COc1nc2ccc(C(O)(c3cncn3C)C3CCOCC3)cc2c(C#N)c1Cc1ccc(-n2cccn2)cc1` (stereo not drawn) [Example 2b, 3-(4-(1H-Pyrazol-1-yl)benzyl)-6-(hydroxy(1-methyl-1H-imidazol-5-yl)(tetrahydro-2H-pyran-4-yl)methyl)-2-methoxyquinoline-4-carbonitrile]: the 50% inhibitory concentration (IC50) came out at 300 nM.

On to `COc1c(Cc2ccccc2)c(C(F)(F)F)nc2ccc(C(O)(c3ccc(Cl)cc3)c3cncn3C)cc12` (single isomer, unassigned) [Example 101b], for which the half-inhibitory concentration (IC50) was 30 nM.

Consider `COc1nc2ccc(C(O)(c3ccc(C)nc3C)c3cncn3C)cc2c(Cl)c1Cc1ccc(C(F)(F)F)cc1` (single isomer, unassigned) [Example 88c, (4-Chloro-2-methoxy-3-(4-(trifluoromethyl)benzyl)quinolin-6-yl)(2,6-dimethylpyridin-3-yl)(1-methyl-1H-imidazol-5-yl)methanol], for which the 50% inhibitory concentration (IC50) was 7.1 nM.

Turning to `CC(=O)N1CCC(C(O)(c2ccc(C(F)(F)F)nc2)c2cc(C)c3nc(C#N)c(Cc4ccc(-n5cccn5)cc4)c(C#N)c3c2)CC1` (single isomer, unassigned) [Example 79c, 3-(4-(1H-Pyrazol-1-yl)benzyl)-6-((1-acetylpiperidin-4-yl)(hydroxy)(6(trifluoromethyl)pyridin-3-yl)methyl)-8-methylquinoline-2,4-dicarbonitrile], the IC50 is 420 nM.

As to `COc1nc2ccc(C(O)(c3cnnn3C)c3cnnn3C)cc2c(Cl)c1Cc1ccc(C(F)(F)F)cc1` [Example 12, (4-Chloro-2-methoxy-3-(4-(trifluoromethyl)benzyl)quinolin-6-yl)bis(1-methyl-1H-1,2,3-triazol-5-yl)methanol], the IC50 stood at 2.4 nM.

For the compound `COc1nc2ccc(C(O)(c3cccnc3)c3ccc(Cl)c(Cl)c3)cc2c(Cl)c1Cc1ccc(-n2cccn2)cc1` (stereo not drawn) [Example 161a, (3-(4-(1H-Pyrazol-1-yl)benzyl)-4-chloro-2-methoxyquinolin-6-yl)(3,4-dichlorophenyl)(pyridin-3-yl)methanol], the IC50 was determined as 82 nM.

For the compound `COc1nc2ccc(C(O)(c3sc(C)nc3C)c3cnnn3C)cc2cc1Cc1ccc(C(F)(F)F)cc1` (single isomer, unassigned) [Example 92c, (2,4-Dimethylthiazol-5-yl)(2-methoxy-3-(4-(trifluoromethyl)benzyl)quinolin-6-yl)(1-methyl-1H-1,2,3-triazol-5-yl)methanol], the concentration for half-maximal inhibition (IC50) is 30 nM.

Take `COc1nc2ccc(C(O)(C3CN(C(C)=O)C3)C3CN(C(C)=O)C3)cc2c(Cl)c1Cc1ccc(C(F)(F)F)cc1` [Example 3, 1,1'-(3,3'-((4-Chloro-2-methoxy-3-(4-(trifluoromethyl)benzyl)quinolin-6-yl)(hydroxy)methylene)bis(azetidine-3,1-diyl))diethanone]: the IC50 is 110 nM.

Consider `Cn1cncc1C(O)(c1ccc(C(F)(F)F)nc1)c1ccc2nc(N3CCCC3)c(Cc3ccc(-n4cccn4)cc3)c(Cl)c2c1` (single isomer, unassigned) [Example 145b, {4-Chloro-3-[4-(1H-pyrazol-1-yl)benzyl]-2-pyrrolidin-1-ylquinolin-6-yl}(1-methyl-1H-imidazol-5-yl)[6-(trifluoromethyl)pyridin-3-yl]methanol], for which the IC50 was found to be 320 nM.

Consider `CCc1nc2ccc(C(O)(c3ccc(C)nc3C)c3cnnn3C)cc2c(Cl)c1Cc1ccc(C(F)(F)F)cc1` (single isomer, unassigned) [Example 23c, (4-Chloro-2-ethyl-3-(4-(trifluoromethyl)benzyl)quinolin-6-yl)(2,6-dimethylpyridin-3-yl)(1-methyl-1H-1,2,3-triazol-5-yl)methanol], for which the half-inhibitory concentration (IC50) worked out at 2 nM.

For `COc1nc2ccc(C(O)(c3cncn3C)c3cnnn3C)cc2c(Cl)c1Cc1ccc(C(F)(F)F)cc1` (single isomer, unassigned) [Example 89b, (4-Chloro-2-methoxy-3-(4-(trifluoromethyl)benzyl)quinolin-6-yl)(1-methyl-1H-1,2,3-triazol-5-yl)(1-methyl-1H-imidazol-5-yl)methanol], the 50% inhibitory concentration (IC50) stood at 0.13 nM.

As for `COc1nc2ccc(C(O)(c3sc(C)nc3C)c3cnnn3C)cc2c(Cl)c1Cc1ccc(-n2cccn2)cc1` (single isomer, unassigned) [Example 21c, (3-(4-(1H-Pyrazol-1-yl)benzyl)-4-chloro-2-methoxyquinolin-6-yl)(2,4-dimethylthiazol-5-yl)(1-methyl-1H-1,2,3-triazol-5-yl)methanol], the IC50 was 3.2 nM.

Staying with this test, now noted: read-out: Human Th17 Assay, IC50; IL-17 production, CD4 T cells, 3 days.
On to `COc1ccc(C(O)(c2cccnc2)c2ccc3nc(OC)c(Cc4ccc(-n5cccn5)cc4)c(Cl)c3c2)cc1OC` (single isomer, unassigned) [Example 159c, (3-(4-(1H-Pyrazol-1-yl)benzyl)-4-chloro-2-methoxyquinolin-6-yl)(3,4-dimethoxyphenyl)(pyridin-3-yl)methanol], for which the half-inhibitory concentration (IC50) came out at 53 nM.

Consider `Cc1cc(C(O)(c2ccc(C(F)(F)F)nc2)c2cncn2C)cc2c(Cl)c(Cc3ccc(-n4cccn4)cc3)c(N3CCC3)nc12` (single isomer, unassigned) [Example 137c, {2-Azetidin-1-yl-4-chloro-8-methyl-3-[4-(1H-pyrazol-1-yl)benzyl]quinolin-6-yl}(1-methyl-1H-imidazol-5-yl)[6-(trifluoromethyl)pyridin-3-yl]methanol], for which the IC50 came to 37 nM.

For `COc1nc2ccc(C(O)(c3cnnn3C)c3cnc(C)n3C)cc2c(C#N)c1Cc1ccc(C(F)(F)F)nc1` (single isomer, unassigned) [Example 44b, 6-((1,2-Dimethyl-1H-imidazol-5-yl)(hydroxy)(1-methyl-1H-1,2,3-triazol-5-yl)methyl)-2-methoxy-3-((6-(trifluoromethyl)pyridin-3-yl)methyl)quinoline-4-carbonitrile], the IC50 was 17 nM.

As to `COc1nc2ccc(C(O)(c3cnnn3C)C3CCOCC3)cc2c(Cl)c1Cc1ccc(C(F)(F)F)cc1` (single isomer, unassigned) [Example 85c, (4-Chloro-2-methoxy-3-(4-(trifluoromethyl)benzyl)quinolin-6-yl)(1-methyl-1H-1,2,3-triazol-5-yl)(tetrahydro-2H-pyran-4-yl)methanol], the IC50 came to 15 nM.

Turning to `COc1nc2ccc(C(O)(c3ccccn3)c3cncn3C)cc2c(Cl)c1Cc1cc2ccccc2s1` (single isomer, unassigned) [Example 59b, (3-(Benzo[b]thiophen-2-ylmethyl)-4-chloro-2-methoxyquinolin-6-yl)(1-methyl-1H-imidazol-5-yl)(pyridin-2-yl)methanol], the IC50 came out at 70 nM.

With `COc1nc2ccc(C(O)(c3oc(C)nc3C)c3cnnn3C)cc2c(Cl)c1Cc1ccc(C(F)(F)F)cc1` (single isomer, unassigned) [Example 156b, (4-chloro-2-methoxy-3-(4-(trifluoromethyl)benzyl)quinolin-6-yl)(2,4-dimethylozazol-5-yl)(1-methyl-1H-1,2,3-triazol-5-yl)methanol], the half-maximal inhibitory concentration (IC50) stood at 82 nM.

Turning to `CC(=O)N1CCC(C(O)(c2ccc3nc(C(F)(F)F)c(Cc4ccccc4)c(Cl)c3c2)c2cncn2C)CC1` (single isomer, unassigned) [Example 115c, 1-(4-((3-Benzyl-4-chloro-2-(trifluoromethyl)quinolin-6-yl)(hydroxy)(1-methyl-1H-imidazol-5-yl)methyl)piperidin-1-yl)ethanone•TFA], the concentration for half-maximal inhibition (IC50) was about 200 nM.

Values taken from EP3057951B1, “METHYLENE LINKED QUINOLINYL MODULATORS OF ROR-GAMMA-T” (Janssen Pharmaceutica NV, priority 2013, dated 2015).
